US8158586B2, “Inhibitors of protein kinases and uses thereof” (priority 2005, dated 2012)
Several values for one entry are separate records, joined by “and”; a condition that tells them apart may be missing. Equal entries are not always repeated. At least one compound was matched to its structure with a doubt left. Some compounds share one wording; it may come from a single statement. Residues, ends and D or L forms follow the SMILES beside them. *: point of attachment. PNA(A) = NCCN(CC(=O)*)C(=O)Cn1cnc2c(N)ncnc21

How the values were obtained:
[1] = system: MCF-7 breast cancer cell line; assay: Cell death at 24 h after pinocytic loading, MCF-7; type: cell-based
[2] = system: PKCα expression in H-661 NSCLC cells; assay: Expression of PKCα in H-661 cells, flow cytometry; type: cell-based; conditions: 5 μM
Procedure: (§1) The effect of compounds 1 to 10 on doxorubicin-induced expression of PKCα in LS180 colon cancer cells and H-661 NSCLC cells was investigated. Cells were exposed to doxorubicin (50 ng/mL) for 3 days prior to exogenous treatment with the PKI compounds at a concentration of 5 μM. Results were acquired by flow cytometry after labelling of the cells with the PKC-alpha #sc 208 antibody.
(§2) The protocol used for fixing the cells for flow cytometry is as follows. A minimum of 1.0×10^6 cells was used in each instance. Cells were trypsinized and spun down at 1,000/5 min at 4° C. All the medium was removed and the cells resuspended in 500 μl of 1×PBS, pH 7.1. The cell suspension was added into 5 mls of 1% paraformaldehyde/PBS on ice and fixed for 15 min on ice. Cells were then centrifuged at 1,000/5 min and resuspended in 10 mls of 1×PBS. Cells were centrifuged again at 1,000/5 min and resuspended in 2 mls of 70% ETOH and kept at −20° C. until needed (up to 1 week). At which time, 2 mls of 1×PBS containing 1% BSA/0.02% NaN3 was added to each tube and the cells were left on ice for 5 min to give the cells time to rehydrate. Cells were then centrifuged at 1,000/5 min and the ETOH/PBS mix removed. The cells were resuspended in 5 mls of 1×PBS and allowed to sit on ice for 5 min. This step was repeated once, then the cells were centrifuged at 1,000/5 min and resuspended in 1 ml of 1×PBS containing 1% BSA/0.02% NaN3 and 5% serum. Blocking was conducted for 30 min at room temperature with inversion every 10 min, then the primary antibody was added directly to each cell tube at the desired concentration and incubated for 1 hr at room temperature inverting every 10 min. Cells were centrifuged at 1,000/5 min, the primary antibody removed and the cells resuspended in 5 mls of 1×PBS. This step was repeated once. Cells were centrifuged at 1,000/5 min and resuspended in 1 ml of 1×PBS w/1% BSA and 0.02% NaN3 (that contains 5% serum) and the secondary antibody was added. Tubes were protected from the light and incubated for 1 hr at room temperature inverting every 10 min. Cells were then centrifuged at 1,000/5 min, the secondary antibody removed and the cells resuspended in 5 mls of 1×PBS. This step was repeated once and then the cells were centrifuged at 1,000/5 min and resuspended in 1 ml of 1×PBS w/1% BSA and 0.02% NaN3 (with the 5% serum added). Tubes were kept on ice until needed for flow cytometry.

[3] = system: PKCα expression in LS180 colon cancer cells; assay: Expression of PKCα in LS180 cells, flow cytometry; type: cell-based; conditions: LS180; doxorubicin 50 ng/mL; tested concentration
Procedure: as §1, §2

[4] = system: IMR-32 neuroblastoma cell line; assay: Cell death at 24 h after pinocytic loading, IMR32; type: cell-based, human
[5] = system: MRP-1 expression in H-661 NSCLC cells; assay: MRP-1 expression in H-661 NSCLC cells, flow cytometry; type: cell-based
Procedure: as §2
(§3) In view of the key role of the Pgp170 and MRP-1 proteins in MDR, the effect of the PKI compounds on expression of these proteins in LS180 colon cancer cells and H-661 NSCLC cells was investigated. Cells were exposed to doxorubicin (50 ng/mL) for 3 days prior to exogenous treatment with the PKI compounds at a concentration of 5 μM. Results were acquired by flow cytometry, conducted as outlined in Example 17 above, after labelling of the cells with the appropriate antibody (either P-gp #sc 1517 or MRP-1 #sc 7774). The number of cells individually analysed amounted to approximately 50,000 with a statistical error of about 0.08%.
(§4) The increase in the expression of P-gp and MRP-1 was assessed by comparing the % of cells expressing the protein in question in the presence and absence of doxorubicin (i.e. the ratio A/B in the Tables).

[6] = system: H-661 non-small cell lung cancer cell line; assay: Cell death at 24 h after pinocytic loading, H661; type: cell-based
[7] = system: MRP-1 expression in LS180 colon cancer cells; assay: MRP-1 expression in LS180 colon cancer cells, flow cytometry; type: cell-based
Procedure: as §2, §3, §4

[8] = system: T-24 bladder cancer cell line; assay: Cell death at 24 h after pinocytic loading, T24; type: cell-based
[9] = system: U-251 glioblastoma cell line; assay: Cell death at 24 h after pinocytic loading, U251; type: cell-based, human
[10] = system: LNCap prostate cancer cell line; assay: Cell death at 24 h after pinocytic loading, LnCAP; type: cell-based
[11] = system: LS-180 colon cancer cell line; assay: Cell death at 24 h after pinocytic loading, LS180; type: cell-based
pERK1/2 = pERK1/2 in serum-stimulated IMR-32 neuroblastoma cells, immunofluorescence (indirect MEK1/2); type: cell-based, human; conditions: 5 mM loading, control stimulated 105.3, control starved 59.5
PKC isoforms = assay: PKC isoform panel, PepTag assay; type: biochemical
[12] = system: MDA-MB-231 breast cancer cell line; assay: Cell death at 24 h after pinocytic loading, MDA-MB-231; type: cell-based
[13] = system: Pgp expression in H-661 NSCLC cells; assay: Pgp expression in H-661 NSCLC cells, flow cytometry; type: cell-based
Procedure: as §2, §3, §4

MDA-MB-231 cells = assay: Cell motility of MDA-MB-231 cells (petri dish method of Zhang); type: cell-based
[14] = system: Pgp expression in LS180 colon cancer cells; assay: Pgp expression in LS180 colon cancer cells, flow cytometry; type: cell-based
Procedure: as §2, §3, §4

STAT-3 = STAT-3 phosphorylation (Ser727, Tyr 705) in IL-6 treated U-251 cells, immunocytochemistry; type: cell-based, human; conditions: 5 mM loading
[15] = system: DU-145 prostate cancer cell line; assay: Cell death at 24 h after pinocytic loading, Du145; type: cell-based
[16] = system: SKOV-3 ovarian cancer cell line; assay: Cell death at 24 h after pinocytic loading, SKOV-3; type: cell-based
Bcl-2 = assay: Bcl2 sublocalization, immunolabelling; type: cell-based

SMILES: CC(=O)N[C@@H](CCCCN)C(=O)N[C@@H](Cc1ccccc1)C(=O)N[C@@H](CCCNC(=N)N)C(=O)N[C@@H](CCCNC(=N)N)C(=O)N[C@@H](CCCCNC(=O)CN(CCN)C(=O)Cn1cnc2c(N)ncnc21)C(=O)N[C@@H](CCCNC(=N)N)C(=O)NCC(=O)N[C@@H](CCCNC(=N)N)C(=O)N[C@@H](CCC(=O)O)C(=O)N[C@H](C(=O)N[C@@H](CC(=O)O)C(N)=O)C(C)C [Compound 5] (Ac-KFRRK(PNA(A))RGREVD-NH2)
- Percentage Cell Death at 24 h, MCF-7 ([1]; 5 mM): 15%
- Percentage Cell Death at 24 h, MCF-7 ([1]; 10 mM): 36%
- expression of PKCα, without doxorubicin [2]: did not have any effect
- PKCα expression, cells exposed to doxorubicin [3]: no effect
- Percentage Cell Death at 24 h, IMR32 ([4]; 5 mM): 11%
- Percentage Cell Death at 24 h, IMR32 ([4]; 10 mM): 27%
- MRP-1 expression ([5]; cells exposed to doxorubicin): values similar to that of controls
- Cells expressing MRP-1, +Doxorubicin (A) ([5]; compound 5 μM): 55.82% and 39.7%
- Cells expressing MRP-1, No Doxorubicin (B) ([5]; compound 5 μM): 2.47% and 2.25%
- MRP-1 Ratio A/B ([5]; compound 5 μM): 22.6 and 17.6
- Percentage Cell Death at 24 h, H661 ([6]; 5 mM): 17%
- Percentage Cell Death at 24 h, H661 ([6]; 10 mM): 22%
- Cells expressing MRP-1, No Doxorubicin (B) ([7]; compound 5 μM): 6.51% and 4.5%
- MRP-1 Ratio A/B ([7]; compound 5 μM): 5.82 and 3.34
- basal expression of MRP-1 ([7]; without doxorubicin): did not alter the basal expression of MRP-1
- Percentage Cell Death at 24 h, T24 ([8]; 5 mM): 14%
- Percentage Cell Death at 24 h, T24 ([8]; 10 mM): 28%
- Percentage Cell Death at 24 h, U251 ([9]; 5 mM): 6%
- Percentage Cell Death at 24 h, U251 ([9]; 10 mM): 16%
- Percentage Cell Death at 24 h, LnCAP ([10]; 5 mM): 1%
- Percentage Cell Death at 24 h, LnCAP ([10]; 10 mM): 4%
- Percentage Cell Death at 24 h, LS180 ([11]; 5 mM): 42%
- Percentage Cell Death at 24 h, LS180 ([11]; 10 mM): 56%
- cell death induced in colon cancer cell line LS-180 ([11]; short term, 24 h): very sensitive to cell death
- pERK1/2 FL Density (pERK1/2): 100.3
- inhibition of PKC isoforms (PKC isoforms): very potent inhibitors of all the PKCs isoforms except PKC epsilon and zeta
- Percentage Cell Death at 24 h, MDA-MB-231 ([12]; 5 mM): 22%
- Percentage Cell Death at 24 h, MDA-MB-231 ([12]; 10 mM): 36%
- Cells expressing Pgp, No Doxorubicin (B) ([13]; compound 5 μM): 1.66% and 1.56%
- basal expression of P-gp ([13]; without doxorubicin): decreased the basal expression of P-gp
- inhibition of motility (MDA-MB-231 cells; After 5 days): 5.0%
- inhibition of motility (MDA-MB-231 cells; day 3 or 4): No inhibition
- Cells expressing Pgp, No Doxorubicin (B) ([14]; compound 5 μM): 7.43% and 3.64%
- Pgp Ratio A/B ([14]; compound 5 μM): 6.23 and 3.52
- P-gp basal expression ([14]; without doxorubicin): equal or close to basal expression
- Anti-Serine Antibody FL Density (STAT-3; pSTAT3 Ser727, control 70.15): 97.7
- Anti-Tyrosine Antibody FL Density (STAT-3; pSTAT3 Tyr 705, control 43): 39.1
- Percentage Cell Death at 24 h, Du145 ([15]; 5 mM): 20%
- Percentage Cell Death at 24 h, Du145 ([15]; 10 mM): 25%
- Percentage Cell Death at 24 h, SKOV-3 ([16]; 5 mM): 5%
- Percentage Cell Death at 24 h, SKOV-3 ([16]; 10 mM): 43%
- Bcl2 label intensity, Perinuclear (Bcl-2; control 0): 2
- Bcl2 label intensity, Cytoplasmic (Bcl-2; control 1): 2
- Bcl2 label intensity, Nuclear (Bcl-2; control 2): 1
